# In publication PMC4336329 (PLoS ONE, 2015):
# Hit rate of the full screen: of about 310,000 compounds, about 14,000 (4.5%) showed an effect of 50% or more. Effects have a minus sign here. The list shows a part of the results.
# Molecular target: human ether-à-go-go-related gene (hERG) potassium channel (human, UniProt Q12809)
# Assay: primary screen, population patch clamp on CHO cells stably expressing hERG
# 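Also: peak tail current of the secondary pulse compared with the same well before compound.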
# Sequence of human ether-à-go-go-related gene (hERG) potassium channel (Q12809 whole entry, looked up): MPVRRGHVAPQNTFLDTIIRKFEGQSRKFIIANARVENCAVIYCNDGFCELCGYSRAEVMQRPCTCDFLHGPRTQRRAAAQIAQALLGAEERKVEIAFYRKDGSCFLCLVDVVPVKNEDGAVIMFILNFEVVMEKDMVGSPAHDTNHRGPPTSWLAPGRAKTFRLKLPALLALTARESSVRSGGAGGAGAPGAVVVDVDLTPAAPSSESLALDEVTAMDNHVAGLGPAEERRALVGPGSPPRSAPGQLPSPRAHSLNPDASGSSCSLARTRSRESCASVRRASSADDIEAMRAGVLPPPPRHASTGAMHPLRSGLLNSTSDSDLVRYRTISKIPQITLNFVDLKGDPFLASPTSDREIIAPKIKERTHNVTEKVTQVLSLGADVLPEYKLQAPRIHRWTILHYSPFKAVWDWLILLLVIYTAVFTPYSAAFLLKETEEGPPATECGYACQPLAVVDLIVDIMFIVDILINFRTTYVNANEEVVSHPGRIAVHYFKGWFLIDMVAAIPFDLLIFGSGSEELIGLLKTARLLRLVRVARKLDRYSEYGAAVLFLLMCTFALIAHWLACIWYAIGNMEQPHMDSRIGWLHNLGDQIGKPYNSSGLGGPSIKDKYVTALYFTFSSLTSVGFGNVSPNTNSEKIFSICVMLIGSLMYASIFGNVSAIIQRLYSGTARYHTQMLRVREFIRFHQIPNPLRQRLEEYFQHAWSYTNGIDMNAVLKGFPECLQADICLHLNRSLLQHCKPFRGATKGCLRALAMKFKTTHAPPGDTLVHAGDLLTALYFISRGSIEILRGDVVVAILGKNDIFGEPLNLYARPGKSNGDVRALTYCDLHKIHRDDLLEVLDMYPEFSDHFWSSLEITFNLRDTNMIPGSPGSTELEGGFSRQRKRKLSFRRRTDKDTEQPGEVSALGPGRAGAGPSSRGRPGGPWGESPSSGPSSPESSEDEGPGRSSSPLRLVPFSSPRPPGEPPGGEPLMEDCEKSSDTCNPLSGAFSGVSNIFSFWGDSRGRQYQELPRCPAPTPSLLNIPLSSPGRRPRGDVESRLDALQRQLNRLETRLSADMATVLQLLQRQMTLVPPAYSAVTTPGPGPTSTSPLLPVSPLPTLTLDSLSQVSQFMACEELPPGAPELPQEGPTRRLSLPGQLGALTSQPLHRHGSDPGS
row,SMILES,"hERG current change (%, negative = inhibition) at 10uM [%]"
1,Cc1ccc(CNC(=O)CCS(=O)(=O)c2ccc3c(c2)CC(C)N3C(=O)C2CC2)o1 (stereo not drawn),11.3
2,CCN(CC)C(=O)C1CCCN(Cc2ccc3c(c2)OCO3)C1 (stereo not drawn),10
3,COc1ccc(/C=N/NC(=O)c2ccc(Br)cc2)cc1CN1CCOCC1,-64.8
4,COCCNC(=O)C(c1ccc(C)o1)N(Cc1ccco1)C(=O)c1snc(C(N)=O)c1N (stereo not drawn),4.68
5,Cc1sc2ncn(CC(=O)NCCc3ccccc3)c(=O)c2c1C,-2.56
6,CC1=C(C(=O)OCc2ccccc2)C(c2ccco2)n2ncnc2N1 (stereo not drawn),-11.4
7,O=C(NCc1ccc2c(c1)OCO2)c1cc(-c2ccc(Cl)cc2Cl)on1,8.81
8,O=C(NCc1ccc(Cl)cc1)C1CCC(CNS(=O)(=O)c2ccccc2)CC1 (stereo not drawn),1.89
9,CCOc1ccc(-c2cc(C(=O)N/N=C(\C)c3cccnc3)c3ccccc3n2)c(OCC)c1,22
10,N#Cc1nc(-c2ccc(OCc3ccccc3)cc2)oc1N1CCC(C(N)=O)CC1,5.99
11,COc1ccc(S(=O)(=O)N(CCc2ccccc2)CC(N)=O)cc1,-32.4
12,CC(C)NC(=S)N(C)C1(c2ccccc2Cl)CCCCC1=O (stereo not drawn),0.189
13,CCCCCNC(=O)CSC1=N/C(=C\c2ccc(Cl)c(Cl)c2)C(=O)N1CC,1.42
14,Br.C[C@@H]1NCCc2cc(O)c(O)cc21,14.9
15,CS(=O)(=O)N1CCN(c2ccc([N+](=O)[O-])c(NCCN3CCOCC3)c2)CC1,-1.21
16,Cl.O=C(NCCN1CCOCC1)C12CC3CC(C1)CC(c1ccccc1)(C3)C2,0.719
17,O=C(c1cc(-c2cccnc2)nc2ccccc12)N1CCC2(CC1)OCCO2,-4.27
18,CCCn1nc(C(=O)OCC(=O)Nc2cccc(OC)c2)c2ccccc2c1=O,3.96
19,CCCCC(=O)N=c1sc2c(OC)ccc(OC)c2n1C,20.1
20,O=C(CN1C(=O)C2C3C=CC(C3)C2C1=O)NCC1COc2ccccc2O1 (stereo not drawn),4.22
21,COc1ccc(OC)c(-n2c(O)c(C=NCCN3CCNCC3)c(=O)[nH]c2=S)c1,20.4
22,CCOc1ccc(NC(=O)c2cnsn2)cc1,8.76
23,O=S1(=O)N=C(N(CCO)/N=C/c2ccc(Br)cc2)c2ccccc21,15

row,SMILES,"hERG current change (%, negative = inhibition) at 10uM [%]"
1,O=C(NCc1ccc2c(c1)OCO2)C1CCCN1S(=O)(=O)c1ccc(F)cc1 (stereo not drawn),-22.5
2,Cc1cccc(NC(=O)C2CCCN(c3nc(C)cc(C)n3)C2)c1 (stereo not drawn),-11.2
3,O=[N+]([O-])c1ccc(NCCO)c2ncccc12,2.11
4,Cc1ccc(S(=O)(=O)N(C)C)cc1NC(=O)c1ccc(OC(F)(F)F)cc1,-51.3
5,COc1cccc(NC(=S)NCc2ccc(F)cc2)c1,-4.25
6,COc1ccc(-c2nnc(SCC(=O)NCC3CCCO3)n2C)cc1 (stereo not drawn),9.8
7,Cc1c(Cl)cccc1NC(=O)C1COc2ccccc2O1 (stereo not drawn),8.79
8,Cc1cccnc1NC(=O)c1ccc(S(=O)(=O)NCc2ccco2)cc1,10.5
9,N#Cc1cccnc1N1CCC(C(N)=O)CC1,12.5
10,O=C(Cn1cc([N+](=O)[O-])cn1)Nc1nccs1,9.77
11,COC(=O)C(C)Oc1ccc(-c2nccc(-c3ccc(F)cc3)n2)cc1 (stereo not drawn),23.1
12,COC(=O)c1ccc(/C=C2\CCn3c2nc2cc(C(=O)O)ccc2c3=O)cc1,8.8
13,COc1ccc(NC(=O)CSc2nc3[nH]c(=O)[nH]c(=O)c3s2)cc1OC,25.9
14,CC(C)(C)NC(=O)NC(=O)COC(=O)CNS(=O)(=O)c1ccc(Br)cc1Cl,51.6
15,C=Cn1ccnc1P(=S)(c1ccn(C)c1)c1nccn1C=C,5.65
16,COc1ccc(S(=O)(=O)N2CCc3ccccc32)cc1C(=O)Nc1ccc(C(N)=O)cc1,9.8
17,C#CCOc1c(Cl)cc(/C=C2/C(=O)ON=C2C)cc1OCC,11.4
18,O=C(c1c[nH]c(C(=O)C(Cl)(Cl)Cl)c1)c1c(F)cccc1F,4.2
19,CC(=O)c1cccc(NC(=O)COC(=O)c2cccc(N3C(=O)c4ccccc4C3=O)c2)c1,2.69
20,CCOC(=O)N1CCN(S(=O)(=O)c2cccc3nsnc23)CC1,-3.82
21,CC(=O)Nc1ccc(NC(=O)c2ccnn2C)cc1,2.03
22,COc1ccc(S(=O)(=O)N2CCN(C(=O)c3c(C)nn(-c4ccccc4)c3Cl)CC2)cc1,-19.4
